Reference: the supplement of paper PMC8728848
The other results are listed elsewhere or left out.

What was measured:
Experiment in all cases: glycan array binding signal (z-score within array); higher = stronger binding
Conditions in all cases: glycan notation: IUPAC condensed, linker removed
[1] = target: Fuc(a1-2)Gal
In short: (§1)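 Glycan array data came from 3228 arrays in the Consortium for Functional Glycomics database, and only arrays with an available protein sequence were kept. Glycan names were put into IUPAC-condensed notation, and columns mapping to the same glycan were averaged. The binding signal is a within-array Z-score, averaged across arrays of one protein sequence run at different concentrations or buffers and across linkers. A negative Z-score can be read as non-binding.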

[2] = target: Fuc(a1-2)Gal(b1-3)GalNAc
In short: as §1

[3] = target: Fuc(a1-2)Gal(b1-3)GalNAc(a1-3)[Fuc(a1-2)]Gal(b1-4)Glc
In short: as §1

[4] = target: Fuc(a1-2)Gal(b1-3)GalNAc(a1-3)[Fuc(a1-2)]Gal(b1-4)GlcNAc
In short: as §1

[5] = target: Fuc(a1-2)Gal(b1-3)GalNAc(b1-3)Gal
In short: as §1

[6] = target: Fuc(a1-2)Gal(b1-3)GalNAc(b1-3)Gal(a1-4)Gal(b1-4)Glc
In short: as §1

[7] = target: Fuc(a1-2)Gal(b1-3)GalNAc(b1-4)[Neu5Ac(a2-3)]Gal(b1-4)Glc
In short: as §1

[8] = target: Fuc(a1-2)Gal(b1-3)GlcNAc
In short: as §1

[9] = target: Fuc(a1-2)Gal(b1-3)GlcNAc(b1-2)Man(a1-3)[Fuc(a1-2)Gal(b1-3)GlcNAc(b1-2)Man(a1-6)]Man(b1-4)GlcNAc(b1-4)GlcNAc
In short: as §1

[10] = target: Fuc(a1-2)Gal(b1-3)GlcNAc(b1-2)Man(a1-3)[Fuc(a1-2)Gal(b1-3)GlcNAc(b1-2)Man(a1-6)]Man(b1-4)GlcNAc(b1-4)[Fuc(a1-6)]GlcNAc
In short: as §1

[11] = target: Fuc(a1-2)Gal(b1-3)GlcNAc(b1-3)Gal(b1-4)Glc
In short: as §1

[12] = target: Fuc(a1-2)Gal(b1-3)GlcNAc(b1-3)GalNAc
In short: as §1

[13] = target: Fuc(a1-2)Gal(b1-3)GlcNAc(b1-3)[Fuc(a1-2)Gal(b1-3)GlcNAc(b1-6)]GalNAc
In short: as §1

[14] = target: Fuc(a1-2)Gal(b1-3)GlcNAc(b1-3)[Gal(b1-4)GlcNAc(b1-6)]Gal(b1-4)Glc
In short: as §1

[15] = target: Fuc(a1-2)Gal(b1-3)GlcNAc(b1-3)[Neu5Ac(a2-6)Gal(b1-4)GlcNAc(b1-6)]Gal(b1-4)Glc
In short: as §1

[16] = target: Fuc(a1-2)Gal(b1-3)GlcNAc6S
In short: as §1

[17] = target: Fuc(a1-2)Gal(b1-3)[Fuc(a1-4)]GlcNAc
In short: as §1

[18] = target: Fuc(a1-2)Gal(b1-3)[Fuc(a1-4)]GlcNAc(b1-2)Man(a1-3)[Fuc(a1-2)Gal(b1-3)[Fuc(a1-4)]GlcNAc(b1-2)Man(a1-3)]Man(b1-4)GlcNAc(b1-4)GlcNAc
In short: as §1

[19] = target: Fuc(a1-2)Gal(b1-3)[Fuc(a1-4)]GlcNAc(b1-2)Man(a1-3)[Fuc(a1-2)Gal(b1-3)[Fuc(a1-4)]GlcNAc(b1-2)Man(a1-6)]Man(b1-4)GlcNAc(b1-4)[Fuc(a1-6)]GlcNAc(b1-4)[Fuc(a1-6)]GlcNAc
In short: as §1

[20] = target: Fuc(a1-2)Gal(b1-3)[Fuc(a1-4)]GlcNAc(b1-3)[Fuc(a1-3)[Gal(b1-4)]GlcNAc(b1-6)]Gal(b1-4)Glc
In short: as §1

[21] = target: Fuc(a1-2)Gal(b1-3)[Fuc(a1-4)]GlcNAc(b1-3)[Gal(b1-4)GlcNAc(b1-6)]Gal(b1-4)Glc
In short: as §1

[22] = target: Fuc(a1-2)Gal(b1-4)Fuc(a1-3)]GlcNAc(b1-2)Man(a1-3)[Fuc(a1-2)Gal(b1-4)[Fuc(a1-3)]GlcNAc(b1-2)Man(a1-6)]Man(b1-4)GlcNAc(b1-4)GlcNAc
In short: as §1

[23] = target: Fuc(a1-2)Gal(b1-4)Glc
In short: as §1

[24] = target: Fuc(a1-2)Gal(b1-4)Glc6S
In short: as §1

[25] = target: Fuc(a1-2)Gal(b1-4)GlcNAc
In short: as §1

[26] = target: Fuc(a1-2)Gal(b1-4)GlcNAc(b1-2)Man
In short: as §1

[27] = target: Fuc(a1-2)Gal(b1-4)GlcNAc(b1-2)Man(a1-3)[Fuc(a1-2)Gal(b1-4)GlcNAc(b1-2)Man(a1-6)]Man(b1-4)GlcNAc(b1-4)GlcNAc
In short: as §1

[28] = target: Fuc(a1-2)Gal(b1-4)GlcNAc(b1-2)Man(a1-3)[Fuc(a1-2)Gal(b1-4)GlcNAc(b1-2)Man(a1-6)]Man(b1-4)GlcNAc(b1-4)[Fuc(a1-6)]GlcNAc
In short: as §1

[29] = target: Fuc(a1-2)Gal(b1-4)GlcNAc(b1-2)[Fuc(a1-2)Gal(b1-4)GlcNAc(b1-4)]Man(a1-3)[Fuc(a1-2)Gal(b1-4)GlcNAc(b1-2)Man(a1-6)]Man(b1-4)GlcNAc(b1-4)GlcNAc
In short: as §1

[30] = target: Fuc(a1-2)Gal(b1-4)GlcNAc(b1-3)Gal(b1-4)GlcNAc
In short: as §1

[31] = target: Fuc(a1-2)Gal(b1-4)GlcNAc(b1-3)Gal(b1-4)GlcNAc(b1-2)Man(a1-3)[Fuc(a1-2)Gal(b1-4)GlcNAc(b1-3)Gal(b1-4)GlcNAc(b1-2)Man(a1-6)]Man(b1-4)GlcNAc(b1-4)GlcNAc
In short: as §1

[32] = target: Fuc(a1-2)Gal(b1-4)GlcNAc(b1-3)Gal(b1-4)GlcNAc(b1-3)Gal(b1-4)GlcNAc
In short: as §1

[33] = target: Fuc(a1-2)Gal(b1-4)GlcNAc(b1-3)GalNAc
In short: as §1

[34] = target: Fuc(a1-2)Gal(b1-4)GlcNAc(b1-3)[Fuc(a1-2)Gal(b1-4)GlcNAc(b1-6)]GalNAc
In short: as §1

[35] = target: Fuc(a1-2)Gal(b1-4)GlcNAc(b1-3)[Fuc(a1-3)[Gal(b1-4)]GlcNAc(b1-6)]Gal(b1-4)Glc
In short: as §1

[36] = target: Fuc(a1-2)Gal(b1-4)GlcNAc(b1-6)GalNAc
In short: as §1

[37] = target: Fuc(a1-2)Gal(b1-4)GlcNAc6S
In short: as §1

B1: Als3-N (Candida albicans) (protein)
chain: KTITGVFNSFNSLTWSNAATYNYKGPGTPTWNAVLGWSLDGTSASPGDTFTLNMPCVFKFTTSQTSVDLTAHGVKYATCQFQAGEEFMTFSTLTCTVSNTLTPSIKALGTVTLPLAFNVGGTGSSVDLEDSKCFTAGTNTVTFNDGGKKISINVDFERSNVDPKGYLTDSRVIPSLNKVSTLFVAPQCANGYTSGTMGFANTYGDVQIDCSNIHVGITKGLNDWNYPVSSESFSYTKTCSSNGIFITYKNVPAGYRPFVDAYISATDVNSYTLSYANEYTCAGGYWQRAPFTLRWTGYRNSDAGSNGIVIVATTRTVTDSTTAVTTLPFDPNRDKTKTIEILKPIPTTTITTSYVGVTTSYLTKTAPIGETATVIVDIPYHTTTTVTSKWTGTITSTTTHTNPTDSIDTVIVQVP
With B1 the “glycan array binding signal (z-score)” value [1] was -0.276, the “glycan array binding signal (z-score)” value [2] was 0.036 and the “glycan array binding signal (z-score)” value [3] was -0.121. The “glycan array binding signal (z-score)” value [4] was -0.225, the “glycan array binding signal (z-score)” value [5] was 0.208 and the “glycan array binding signal (z-score)” value [6] was -0.218. For the same binder, the “glycan array binding signal (z-score)” value [7] was -0.075, the “glycan array binding signal (z-score)” value [8] was -0.288 and the “glycan array binding signal (z-score)” value [9] was -0.253. For the same binder, the “glycan array binding signal (z-score)” value [10] was -0.101, the “glycan array binding signal (z-score)” value [11] was -0.254 and the “glycan array binding signal (z-score)” value [12] was 0.228. For the same binder, the “glycan array binding signal (z-score)” value [13] was 0.101, the “glycan array binding signal (z-score)” value [14] was -0.291 and the “glycan array binding signal (z-score)” value [15] was -0.154. For the same binder, the “glycan array binding signal (z-score)” value [16] was -0.191, the “glycan array binding signal (z-score)” value [17] was -0.271 and the “glycan array binding signal (z-score)” value [18] was 0.07. The “glycan array binding signal (z-score)” value [19] was 0.599, the “glycan array binding signal (z-score)” value [20] was -0.221 and the “glycan array binding signal (z-score)” value [21] was -0.259. For the same binder, the “glycan array binding signal (z-score)” value [22] was 2.75, the “glycan array binding signal (z-score)” value [23] was -0.278 and the “glycan array binding signal (z-score)” value [24] was -0.025. For the same binder, the “glycan array binding signal (z-score)” value [25] was -0.282, the “glycan array binding signal (z-score)” value [26] was -0.257 and the “glycan array binding signal (z-score)” value [27] was -0.243. The “glycan array binding signal (z-score)” value [28] was -0.083, the “glycan array binding signal (z-score)” value [29] was -0.209 and the “glycan array binding signal (z-score)” value [30] was -0.181. For the same binder, the “glycan array binding signal (z-score)” value [31] was 0.42, the “glycan array binding signal (z-score)” value [32] was -0.233 and the “glycan array binding signal (z-score)” value [33] was 1.65. The “glycan array binding signal (z-score)” value [34] was -0.148, the “glycan array binding signal (z-score)” value [35] was -0.14 and the “glycan array binding signal (z-score)” value [36] was 0.041. For the same binder, the “glycan array binding signal (z-score)” value [37] was -0.257.
